Results taken from PubChem BioAssay AID602179 (National Center for Advancing Translational Sciences (NCATS), 2012).
The campaign covered roughly 390,000 compounds. About 360 (0.092%) were called active. Inconclusive results, whose numbers are uncertain, are shown with a selection of clear calls. The call rests on the fitted dose curve; in most records, active means well fitted inhibition curve with a large enough effect; inconclusive means small, poorly fitted or top-dose-only effect; inactive means no such curve, though single readings can be large or run the other way. Potencies beside an inconclusive call are fits to weak or partial responses and may not hold up.
Further: nearly all actives have a fitted effect of over 65% in size.
Potency means the concentration at half of the fitted maximal effect; tags describe the fitted curve by direction and shape.

What follows are compounds tested against Isocitrate dehydrogenase [NADP] cytoplasmic (Homo sapiens) (UniProt O75874) (assay: qHTS for Inhibitors of mutant isocitrate dehydrogenase 1 (IDH1): qHTS). Conditions: IDH1-R132H enzyme, NADPH consumption, diaphorase/resazurin fluorescence; series mostly up to 76.6 µM.
Summary of the method: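 IDH1-R132H (0.5 ug/mL) preincubated 30 min with compound, then NADPH (0.016 mM) and alpha-KG (2 mM) added; 80 min at RT, pH 7.5. Remaining NADPH coupled via diaphorase/resazurin to fluorescence (540/590 nm); concentration-response curves normalized to no-enzyme control.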
For `CCCn1c(=N)c(S(=O)(=O)c2ccccc2)cc2c(=O)n3ccccc3nc21`, the Potency was active: 39.8 µM. In the case of `C[C@H]1CN([C@@H](C)CO)S(=O)(=O)c2ccc(C3=CCCC3)cc2O[C@@H]1CN(C)C(=O)C1CCCCC1`, the Potency is reported as inconclusive: 50.1 µM [inhibitor, single point]. With `CCCN(C(=O)c1cn(CC(C)C)c(=O)c2cc(OC)c(OC)cc12)c1cccc(C)c1` the Potency was inconclusive: 50.1 µM [inhibitor, single point]. In the case of `CCc1ccc(CCC(=O)Nc2ncc(Cc3ccccc3Cl)s2)o1`, the Potency is reported as “inactive”. For `O=c1[nH]c(C2CCN(S(=O)(=O)Cc3ccccc3)CC2)nc2c1nnn2Cc1ccccc1Cl`, the Potency was “inactive”. For `Cc1ccc(C(C(=O)NC2CCCC2)N(C(=O)Cc2cccs2)c2ccc(C)c(C)c2)o1` (stereo not given), the Potency was active: 5.21 µM. With `Cc1ccc(C2C3CN(C(C)C)CC=C3C(C#N)=C(N)C2(C#N)C#N)cc1` (stereo not given) the Potency was inconclusive: 44.7 µM [inhibitor, partial curve, poor fit]. `COc1ccccc1NCC(=O)c1ccc(Cl)cc1` was tested, and the Potency was active: 46.5 µM. `Cc1ccc2c(c1)Oc1ccc(NC(=O)CCl)cc1C(=O)N2` was tested, and the Potency was active: 13.1 µM. With `CCOc1ccc(-n2c(=S)sc3c(=O)[nH]c(SCC(=O)NC4CCCCC4)nc32)cc1` the Potency was inconclusive: 22.4 µM [inhibitor, partial curve, poor fit]. For `CCOC(=O)c1c(C)[nH]c(C)c1S(=O)(=O)N(C)CC(=O)Nc1ccc(C)c(N(C)C)c1`, the Potency was “inactive”. For `CCOC(=O)c1cc2c(=O)n3ccccc3nc2n(Cc2ccco2)c1=NC(=O)c1c(F)cccc1Cl`, the Potency was “inactive”. `O=C(O)c1cnn(-c2nc(-c3ccc(Cl)c(Cl)c3)cs2)c1C(F)(F)F` was tested, and the Potency was inconclusive: 52.1 µM [inhibitor, single point]. For `COc1ccc(OC)c(-c2c3cc(O)c(=O)cc-3oc3cc(O)c(O)cc23)c1`, the Potency was active: 39.8 µM. In the case of `Cc1ccc(-c2nc(CS(=O)(=O)CC(=O)NC3CCCCCC3)c(C)o2)cc1`, the Potency is reported as “inactive”. In the case of `CCOC(=O)c1cc2c(=O)n3ccccc3nc2n(CC2CCCO2)c1=NC(=O)c1ccc(C)cc1` (stereo not given), the Potency is reported as inconclusive: 50.1 µM [inhibitor, single point]. `O=S(=O)(c1cccs1)N1CCN(c2ccnc3cc(Cl)ccc23)CC1` was tested, and the Potency was “inactive”. `O=C(CN1C(=O)COc2ccc(S(=O)(=O)NC3CCCC3)cc21)Nc1ccc(Cl)cc1` was tested, and the Potency was inconclusive: 50.1 µM [inhibitor, single point]. In the case of `CC(=O)Nc1ccc(NC(=O)CSc2nc3ccccc3nc2N2CCCCC2)cc1`, the Potency is reported as inconclusive: 50.1 µM [inhibitor, single point]. In the case of `CC(=O)N1CCc2c(sc3c2c(=O)n(-c2ccc(C)cc2)c(=O)n3Cc2c(F)cccc2Cl)C1`, the Potency is reported as inconclusive: 25.1 µM [inhibitor, full curve]. For `CN(C)/C=C1\SC(=S)N(c2ccc(Br)cc2)C1=O`, the Potency was inconclusive: 25.1 µM [inhibitor, partial curve]. In the case of `CCN(C(=O)c1cc2c(C)nc3ccccc3c2o1)c1cc(Cl)ccc1OC`, the Potency is reported as active: 32.9 µM. With `c1ccc2c(c1)Nc1ccncc1S2` the Potency was “inactive”. In the case of `CN(Cc1ccc(OC(F)F)cc1)C(=O)c1ccc(S(=O)(=O)N(C)c2ccccc2)cc1`, the Potency is reported as “inactive”. For `Cc1cccc(CNC(=O)c2ccc(NC(=O)N3CCSc4ccccc43)cc2)c1`, the Potency was “inactive”. `CC[C@@H](CCC=C(C)C)C(=O)N(Cc1ccccc1)c1ccccc1` was tested, and the Potency was inconclusive: 25.1 µM [inhibitor, full curve]. `COc1ccc(/C=N/NC(=O)c2ccc[nH]2)cc1` was tested, and the Potency was “inactive”. With `O=C1C(F)=CC(COC(c2ccccc2)(c2ccccc2)c2ccccc2)OC1n1cc(F)c(=O)[nH]c1=O` (stereo not given) the Potency was active: 26.1 µM. For `CCOC(=O)COc1ccc(C)cc1C(=O)c1ccn2nc(-c3ccc(F)cc3)cc2n1`, the Potency was inconclusive: 44.7 µM [inhibitor, partial curve, poor fit]. In the case of `O=C1C2C3C=CC(C3)C2C(=O)N1c1ccc(-c2nc3ccccc3o2)cc1` (stereo not given), the Potency is reported as “inactive”. `Cc1ccc(OCCCSc2nc(-c3ccc(C(C)(C)C)cc3)nc3cc(=O)[nH]n23)cc1C` was tested, and the Potency was active: 39.8 µM. With `O=c1[nH]c(N2CCOCC2)cc2ccccc12` the Potency was inconclusive: 50.1 µM [inhibitor, single point]. For `CC(=O)Nc1ccc(NS(=O)(=O)c2ccc3[nH]c4c(c3c2)CCCCC4)cc1`, the Potency was inconclusive: 50.1 µM [inhibitor, single point]. With `O=C1NC[C@H](Cc2ccccc2)N(C[C@H]2CCCN2C[C@H](Cc2ccccc2)N2C[C@H](Cc3ccccc3)N(CC3CCCCC3)C(=O)C2=O)C1=O` the Potency was inconclusive: 44.7 µM [inhibitor, partial curve]. `CCO[C@@H]1OC(C(=O)N2CCN(Cc3ccc4c(c3)OCO4)CC2)=C[C@H](C2CCCCC2)[C@H]1CCCO` was tested, and the Potency was inconclusive: 44.7 µM [inhibitor, partial curve, poor fit]. `COC(=O)C1=C(C)C(c2ccc(OC)cc2OC)NC(=O)N1` (stereo not given) was tested, and the Potency was “inactive”. `Cn1c(CNC(=O)CNC(=O)c2cccc(Cl)c2)cc(=O)n(C)c1=O` was tested, and the Potency was “inactive”. In the case of `O=C(OCc1nnc(-c2ccccc2)o1)c1cc([N+](=O)[O-])ccc1Cl`, the Potency is reported as inconclusive: 28.2 µM [inhibitor, single point]. For `CCOC(=O)c1c(C)oc2c1c(C(c1ccncc1)N1CCOCC1)c(O)c1ccccc12` (stereo not given), the Potency was “inactive”. With `Cc1ccc2nc(-c3ccncc3)c(Nc3ccc(C(C)C)cc3)n2c1` the Potency was inconclusive: 44.7 µM [inhibitor, single point]. In the case of `O=C1ON=C(c2ccccc2)/C1=C/c1ccc(-c2ccccc2[N+](=O)[O-])o1`, the Potency is reported as inconclusive: 44.7 µM [inhibitor, single point]. With `CCOc1ccccc1N(C)C(=O)c1c2c(nc3ccccc13)C(=O)N(C1CCCCC1)C2` the Potency was inconclusive: 50.1 µM [inhibitor, partial curve, poor fit]. In the case of `Cc1ccc(NC(=O)CSc2nc(-c3ccco3)nc3cc(=O)[nH]n23)cc1`, the Potency is reported as inconclusive: 44.7 µM [inhibitor, single point]. In the case of `Cc1ccccc1C(=O)N1CCN(c2ccc(NC(=O)c3ccc([N+](=O)[O-])o3)cc2)CC1`, the Potency is reported as “inactive”. For `C(=N\Nc1nc2ccccc2[nH]1)/c1ccc2ncccc2c1`, the Potency was “inactive”. In the case of `CCOC(=O)c1ccc(N2C(=O)c3n[nH]c(-c4ccco4)c3C2c2cccc(O)c2)cc1` (stereo not given), the Potency is reported as inconclusive: 44.7 µM [inhibitor, partial curve, poor fit]. In the case of `CC1(C)Cc2nc3oc4c(N(CCO)Cc5ccccc5)ncnc4c3cc2CO1`, the Potency is reported as “inactive”. In the case of `CCOc1ccc(NS(=O)(=O)c2ccc(NS(=O)(=O)c3ccc(SC)cc3)cc2)cc1`, the Potency is reported as inconclusive: 58.5 µM [inhibitor, single point]. With `NNC(=O)CSc1c(-c2ccccc2)c2cc(Cl)ccc2[nH]c1=O` the Potency was inconclusive: 7.36 µM [inhibitor, full curve]. `CC[C@@H]1Cc2cc(O)ccc2C2=C1c1ccc(O)cc1C[C@H]2CC` was tested, and the Potency was inconclusive: 50.1 µM [inhibitor, partial curve, poor fit]. In the case of `COc1ccccc1NS(=O)(=O)c1cccc(-n2c(O)c(C=Nc3ccccc3C(=O)O)c3ccccc3c2=O)c1`, the Potency is reported as inconclusive: 58.5 µM [inhibitor, single point]. `O=C(CCC1N=C2c3ccccc3N=C(SCC(=O)Nc3ccc(F)cc3)N2C1=O)NCc1cccs1` (stereo not given) was tested, and the Potency was inconclusive: 44.7 µM [inhibitor, partial curve]. `COC(=O)c1ccc(Cl)cc1NC(=O)N(Cc1ccc(OC)cc1)C1CCN(C(C)=O)CC1` was tested, and the Potency was inconclusive: 50.1 µM [inhibitor, single point]. In the case of `NNc1nc2ccc(Cl)cc2s1`, the Potency is reported as “inactive”. For `CC(C)(C)c1ccc(C(=O)NCCC(=O)Nc2ccc(S(=O)(=O)Nc3nccs3)cc2)cc1`, the Potency was inconclusive: 58.5 µM [inhibitor, single point]. With `COc1ccc(-c2c(C)nc(N)nc2-c2ccc(OCc3ccc(C)cc3)cc2O)cc1OC` the Potency was inconclusive: 18.5 µM [inhibitor, partial curve, poor fit]. In the case of `O=C(CCl)Nc1cc(S(=O)(=O)N2CCCCCC2)ccc1Cl`, the Potency is reported as “inactive”. In the case of `CCc1ccc(/C=C/c2c[nH]c3ccccc23)[n+](CC)c1`, the Potency is reported as “inactive”. With `O=[N+]([O-])c1cc(Cl)cc(/C=N/NC(=S)Nc2ccc(S(=O)(=O)N3CCOCC3)cc2)c1O` the Potency was inconclusive: 58.5 µM [inhibitor, single point]. `CC(=O)c1cccc(N(C(=O)CS(=O)CC(=O)Nc2ccc(F)cc2)C(C(=O)NC2CCCCC2)c2ccc(C)o2)c1` (stereo not given) was tested, and the Potency was inconclusive: 41.4 µM [inhibitor, partial curve]. For `CCCCC(CCC(=O)O)(C(=O)OCC)c1csc(Nc2ccc(OCC)cc2)n1` (stereo not given), the Potency was inconclusive: 52.1 µM [inhibitor, single point]. For `Cc1ccn2c(Nc3ccc4c(c3)OCCO4)c(-c3ccc(C)o3)nc2c1`, the Potency was inconclusive: 50.1 µM [inhibitor, partial curve, poor fit]. For `NS(=O)(=O)c1cccc(NC(=O)CSc2nc3nc(-c4cccs4)cc(C(F)(F)F)c3c(=O)[nH]2)c1`, the Potency was inconclusive: 58.5 µM [inhibitor, single point]. With `CC(=O)Oc1cccc2c1C(=O)C1CC=CC(OC(C)=O)C1C2=O` (stereo not given) the Potency was inconclusive: 14.7 µM [inhibitor, full curve]. In the case of `C[C@@H]1CN([C@@H](C)CO)C(=O)c2cccc(NS(=O)(=O)c3cccs3)c2O[C@H]1CN(C)Cc1ccc(C(F)(F)F)cc1`, the Potency is reported as inconclusive: 63.1 µM [inhibitor, single point].
